Data published in ChEMBL document CHEMBL4888484, “Replenishing the malaria drug discovery pipeline: Screening and hit evaluation of the MMV Hit Generation Library 1 (HGL1) against asexual blood stage Plasmodium falciparum ,using a nano luciferase reporter read-out” (2022).
Among all 150,000 compounds or so, about 540 (0.36%) showed an effect of 50% or more. This is one part of the list.

test system: Plasmodium falciparum; assay: Primary screen in NF54 nanoGlo assay, in single point, at 2uM, 72h; a lower Z score goes with more inhibition; format: functional, Erythrocyte; conditions: timepoint 72 hour

Structure (SMILES) | % Inhibition [%] | Z score
O=S(=O)(CCC(F)(F)F)N1CCc2sc(Cl)cc2C1 | -8 | 0.98
Cc1nc(C(C)C)sc1[C@H](C)NCC(C)(C)C1(O)CCOCC1 | -6 | 0.86
O=C(NC[C@H]1CCCO1)c1csc(-c2ccc(OCc3cccc(F)c3)cc2Cl)n1 | -9 | 1.05
COc1ccc(CC(=O)N(c2ccccc2)c2ccccc2)cc1 | 27 | -3.77
C[C@H]1Cc2cccc(F)c2N(Cc2cn(C)nn2)C1 | -16 | 1.65
O=C(Nc1ccc(OC(F)(F)Cl)cc1)NS(=O)(=O)Oc1ccccc1Cl | 0 | -0.03
COc1cccc(CNC(=O)COc2nc(C)nc3onc(-c4ccc(F)cc4)c23)c1 | -1 | 0.17
CC[C@@H](c1ccncc1)n1ccnc1-c1cc(OC)c2c(c1)OCO2 | -21 | 2.73
CC[C@H]1OCC[C@@H]1NC(=O)NCC1CCCn2ccnc21 (stereo partly drawn) | 1 | -0.16
C[C@H]1CS(=O)(=O)CCN1C(=O)NCc1ccc(C2CCCCC2)cc1 | -10 | 1.44
Cc1nc2ccc(NCCn3c(C)nc4ccccc43)nn2n1 | -2 | 0.38
CN(Cc1cncn1C)[C@@H](C(=O)O)c1cccc(Br)c1 | -2 | 0.46
CN(C)CC1CCN(c2ccc(NC(=O)C3=COCCC3)cc2)CC1 | -8 | 0.71
CO[C@@H](CS(=O)(=O)Nc1ccc(CO)cc1)C1CCCC1 | -17 | 2.24
COCCC(=O)N1CC[C@@H]2OCc3cccc(c3)Oc3ccc(cc3)CCC(=O)N(CCCO)CC(=O)N[C@H]2C1 | -22 | 2.85
O=C(CN1CCOCC1)Nc1ccccc1C(=O)Nc1ccc(Cl)cc1 | -18 | 2.39
Cn1cc(C(N)=O)cc1C(=O)NC[C@@H]1C[C@H]1c1ccccc1 | 1 | -0.12
CCCCC(=O)N1CCN(c2ccc(=O)n(-c3cccc(Cl)c3)n2)CC1 | -11 | 1.92
Cc1ccc(C)c(CN2CCCN(c3ccc(C)cc3NS(=O)(=O)c3cccc(Cl)c3)C2=O)c1 | -8 | 0.97
CC(=O)N[C@H]1C[C@H](c2nnc(CN3CCN(c4ncccn4)CC3)n2C)C1 | -11 | 1.8
O=C1NCCOCCN(S(=O)(=O)c2ccc3c(c2)CCC3)[C@H]2CCC[C@@H]12 | -2 | 0.22

Structure (SMILES) | % Inhibition [%] | Z score
CCC(C)(C)C(=O)Nc1cc(C)[nH]c(=O)n1 | -5 | 0.7
O=C1CCCC1C1COCCN1C(=O)c1cnn2ccccc12 (stereo not drawn) | -6 | 0.85
Cc1cc(O)nc([C@H](C)N2CCN(C(=O)c3ccccc3OC(F)F)CC2)n1 | 2 | -0.34
Cc1cc(N2CCCC2)nc(CNC(=O)c2ccccc2)n1 | -11 | 1.76
C#CCN(C)S(=O)(=O)CC1CCC1 | -8 | 0.75
CC(C#N)CN(C)c1ncc(C#N)c(N(C)CC(C)C#N)n1 (stereo not drawn) | 7 | -1.36
CN(Cc1cc(Cl)cc(Cl)c1)Cc1nnc2n1CCCCC2 | -10 | 1.19
Cc1ccc(CCC(=O)NC(C)(C)C)c(C)c1 | -4 | 0.84
CCCc1noc(CN(CC)[C@@H](C)COC)n1 | -8 | 0.81
CC(C)c1nc(CN(C)C(=O)c2cn3cccnc3n2)no1 | -22 | 1.99
CCNC(=O)c1ccc(N[C@@H]2c3ccccc3C[C@@H]2O)nc1 | -9 | 1.37
Cc1ccccc1CNC(=O)Cn1c(C)cc(-c2nnc(-c3ccc(F)cc3)o2)c1C | -24 | 4.67
COc1ccc(N2CCN(C(=O)Nc3snnc3C(=O)N3CCOCC3)CC2)cc1 | -4 | 0.48
COc1cc(C)ccc1C(=O)N[C@H]1CCCNC1=O | 1 | -0.19
NC1CC(NC(=O)c2ccc(C3CCOCC3)cc2)C12CCC2 (stereo not drawn) | -2 | 0.47
CCOC(=O)C[n+]1cc(-c2ccc3ccccc3n2)cc2ccccc21 | 5 | -0.74
Cc1ccc(S(=O)(=O)CC(=O)Nc2ccccc2-c2nc3ccccc3s2)cc1 | -12 | 2.29
CC(C)C(NC(=O)C1CCCCC1C)C(=O)O (stereo not drawn) | -5 | 0.58
O=S(=O)(c1cc(-c2nc(-c3ccc(Cl)cc3)no2)cs1)N1CCc2ccccc21 | -5 | 0.63
CC(C)N1CCC(CC(=O)N[C@H](C(=O)O)c2cccc(F)c2F)CC1 | -21 | 1.93
O=C(Cn1nccn1)NCC[C@H]1CCCOC1 | -9 | 1.62

Structure (SMILES) | % Inhibition [%] | Z score
CC1CN(CC(=O)c2c[nH]c(C(=O)N3CCCC3)c2)C(C)CO1 (stereo not drawn) | -5 | 0.64
O=C(CCc1cncs1)NC1C2CC1N(CCOCc1ccccc1)C2 (stereo not drawn) | 1 | -0.16
CNC(=O)NC1CN(c2nc3cc(Br)ccc3o2)C1 | -4 | 0.67
O=C(COc1cccc(-c2noc(-c3ccco3)n2)c1)NCc1ccccc1 | 0 | 0.02
CN(Cc1ccnn1C)C(=O)NC[C@H]1CC[C@@H](CO)O1 | -9 | 1.56
O=C([C@@H]1CC=CCC1)N1CCC(N2C(=O)COC2=O)CC1 | -10 | 1.84
CCCCCC(=O)N1CCC(N(CC)S(C)(=O)=O)CC1 | -3 | 0.44
CCOC1CC(NC(=O)[C@H]2CCC(=O)N2)C1(CC)CC (stereo partly drawn) | -9 | 1.76
COC(=O)c1cc(C)nc2c1c(=O)n(CC(=O)Nc1ccccc1C)c(=O)n2-c1ccccc1 | 0 | 0.05
CCN(CC)c1onc(-c2ccccc2)c1CN(Cc1ccccc1)C(=O)CC(C)C | -4 | 0.51
CC(=O)N(C)c1ccc2c(c1)NC(=O)C[C@@H]2c1cc(C)ccc1F | -8 | 1.33
COc1ccc(NC(=O)Nc2c(-c3ccccc3)nn(-c3ccccc3Cl)c2N)cc1 | 3 | -0.41
CC(C)(C)OC(=O)[C@@]12CCC[C@H]1CN(CCn1ccnc1)C2 | -16 | 2.29
Cc1ccc(NC(=O)N(C)C)cc1NC(=O)C(C)(C)N1CCOCC1 | -4 | 0.66
Cc1nn(C)c2nc(N[C@H]3CCN(C)C3=O)sc12 | 0 | 0.04
COc1nsc(CN[C@H]2Cc3ccccc3[C@H]2OC)c1Cl | -7 | 1.25
Cc1noc(NC(=O)CC2CC3CCC2C3)n1 (stereo not drawn) | 13 | -1.12
O=C(c1ccc(CN2CCOCC2)cc1)N1CCN(S(=O)(=O)c2ccccc2)CC1 | -10 | 1.56
C[C@H](C(=O)N1CCN(C)CC1)C1CC[C@@]2(C)Cc3sc(CS(=O)(=O)c4ccc(Cl)cc4)nc3[C@@H](C)[C@@H]2[C@H]1O (stereo partly drawn) | -6 | 0.86
CNC(=O)C1=CCN(C(=O)c2cc(C)cc(C)c2)CC1 | -8 | 1.35
CCn1nc(C)c(Cn2ccnc2-c2nc3ccccc3[nH]2)c1C | 4 | -0.7

Structure (SMILES) | % Inhibition [%] | Z score
CCCNC(=O)c1ccc(N2CC[S+]([O-])CC2)nc1 | -9 | 1.68
Cc1cc(NC(=O)CN2CCc3cncnc3C2)n(C)n1 | 0 | 0.08
O=C(NCc1cc(F)c(Cl)cc1F)N1CC(N2CCCC2=O)C1 | -6 | 0.8
NS(=O)(=O)Cc1ncsc1Br | -10 | 1.45
CCCCn1c(N)c(N(C(=O)COc2ccccc2-c2ccccc2)C2CCCC2)c(=O)[nH]c1=O | -8 | 1.51
Cc1nnc(NC(c2cnc3ccccc3c2)[C@H]2C[C@@H](O)C2)s1 (stereo partly drawn) | 35 | -1.08
CC[C@@]1(O)COC2(CN(C(=O)c3ccc(OC)cc3OC)C2)C1 | 4 | -0.6
COc1ccc(F)c(C(=O)N[C@H]2CC[C@@H]3CCC[C@@H]32)c1F | -10 | 1.55
Cc1ccc(C[C@H](C)NS(=O)(=O)N(C)CCC#N)c(C)c1 | 4 | -0.57
Cc1cc(NC(=O)N2CCN(c3ccccc3)C(=O)[C@@H]2C)n(CC(C)C)n1 | -6 | 1.21
CC1CCC(C(C)C)C(OCC(=O)N2CCN(c3cccc(F)c3C#N)CC2)C1 (stereo not drawn) | -17 | 3.4
COc1ccccc1Cn1c(C)cc(=O)c(C(=O)N2CCN(c3cccc(Cl)c3)CC2)c1C1CC1 | -11 | 1.27
O=C(c1ccccc1)N1CCO[C@@H](CS(=O)(=O)NCc2ccccn2)C1 | -3 | 0.37
c1ccc(CCc2nc(CNC3CCOCC3)cs2)cc1 | -13 | 1.3
Cc1ccccc1CNC(=O)c1cccn(-c2ccc(NC(=O)c3ccccc3)cc2)c1=O | -1 | 0.07
COc1cccc(-c2ccc3nc(C(=O)N4CCN(CCN(C)C)CC4)cn3c2)c1 | -17 | 1.7
O=C(Cn1nnnc1CN1CCCC1)NCC(F)(F)F | 1 | -0.15
Cc1cc(C)nc(CN2CCc3occc3[C@@H]2C(=O)O)c1 | 3 | -0.47
COc1cc(NC(=O)CN(Cc2cnn(C)c2)C2CC2)ccc1Cl | -6 | 1.03
O=C(NCc1ccccn1)c1nn(-c2ccccc2F)nc1CO | -7 | 1.31
CC(C)c1csc(CN2CC[C@H](CNS(C)(=O)=O)C2)n1 | -18 | 2.39
